# Measured values from the supplement of paper PMC11417369.
# This is one part of the list.
# Tested on: PfSIP2 AP2 domain 1 (GST-tagged)
# Assay: gcPBM binding intensity (ln(normalized median fluorescence intensity)); higher = stronger DNA binding
# How it was run: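 GST-tagged P. falciparum DNA-binding domains, expressed in E. coli (about 25 μg on average), were applied for 1 h to an Agilent 4 × 180k array of primer-extended double-stranded 36-bp intergenic genomic probes plus negative controls. The binding buffer was 1× PBS with 1% milk, 0.2 mg/ml BSA, 0.5% salmon testes DNA and 0.03% Triton X-100. Bound protein was detected with Alexa488 anti-GST antibody and scanned at 488 nm. Binding intensity is the highest Masliner-normalised natural-log median intensity across replicate spots of either probe orientation.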
row,Sequence,gcPBM binding intensity (ln)
1,AATAAAAATAAAAATTGTACACTTTTTTAATATTTA [XGTACX_site892],6.72
2,TTTCCAAATACAACTACACACAAACAAAAATTATAT [CACACA_site4641],7.25
3,TATCTCATAGTATACACACACACACGCGCACATATA [CACACA_site6917],7.6
4,TGTATATATTATATTTGTACATATAAAACTATATGT [XGTACX_site4782],6.97
5,TTTTGGTGGGTTACAAGTACTCAAAATGGATTGTTA [XGTACX_site1951],6.94
6,AAAAAAAAAAAAAAAACATGCAATAAAGTGTGCGTA [TGCATGCA_site982],7.5
7,TTAAATATATGTAATACGCACACTTAATATTTTGAG [CACACA_site4170],6.97
8,TTTCGAAAAACAACAAGAAAAAAAAAAAAAAAAAAA [XGTACX_negctrl_site449],6.76
9,TCACATACATTACTTACACACCATATTGATATATAC [CACACA_site6353],7.39
10,ATTAAATCCGCACGCACACACACATATTAATAAAAA [CACACA_site3992],7.83
11,TAAAAAAGAAAATATATACACACCAAAAAAAAAAAA [CACACA_site3146],6.82
12,AAACAAAAAAATTGAAATAAAATGAAGTAAATGAAC [TGCATGCA_negctrl_site129],7.52
13,ACATGTCTTAAAAGACGTACATATAAAAGAACCCTA [XGTACX_site8940],7.01
14,AATATTAAAGAATAATGTACAAAATAAAAGCAAAGA [XGTACX_site3550],7.67
15,TTATTTTTTAAAAGTAGTACAAATTTTTATAGAAAA [XGTACX_site7407],7.09
16,ATTCCTTGGTTGTATAGTACTTTGGTTAAACATAAA [XGTACX_site6967],7.4
17,CAATATTTGTTATGGGTGCAAACCGCATATATATAA [GTGCAC_site9543],11
18,ATATATATATATAATAGTACATATATTTTGAAAGAT [XGTACX_site5800],8.58
19,TATGTGTGAAAAAAATGTACATATATATAAATTATA [XGTACX_site7202],7.07
20,AACTGTAAAAAATATAAACACACATAGAAATATATA [CACACA_site8002],7.01
21,AATTAAAAAAGTAATTAACACACAATAATGTAATGC [CACACA_site9388],6.9
22,GTTCTGTAAATACGTGCACACACAAATCACAAATGT [CACACA_site7999],10.1
23,AAAGAAATGAAATATACACACATACATATATACATA [CACACA_site9335],6.7

row,Sequence,gcPBM binding intensity (ln)
1,GATATATTTTATATATGTACATACAATGGTAAATAT [XGTACX_site2759],7.09
2,TTTTTTTTCTTTTTTTGTACATAATAATATATAAAT [XGTACX_site6778],7.03
3,AAAAATGAAAAATGAAAAATGAAAAATGAAAAATAA [CACACA_negctrl_site695],6.87
4,TATTCTTACAAAAGTAGTACAATCATTCATATTTTT [XGTACX_site631],6.99
5,TAGTTTCAAGTAGGACGTACATATAAAAGGATTTTT [XGTACX_site7136],6.87
6,GGATATTATATAAAGTGTACAAGACAAATATATACA [XGTACX_site8173],7.12
7,ATATATCAAGGGAGTGAATGTTATGCATATGAATAT [TGCATGCA_negctrl_site573],7.07
8,AAATTAACAAACTGTAGTACTAACAATATATACAAA [XGTACX_site1772],7.13
9,AAAAAAAAAAAACACACACACAAAATAAACAAACAA [CACACA_site2721],7.16
10,ATTATAATTATCAAGGTGCGTGTATTATAATAAATA [GTGCAC_site9917],9.46
11,TAATATAATAATAATTGTACTTTTCATAGTGTAATT [XGTACX_site8152],6.85
12,TTATAATCAATGAATACACACATATATTTAATTAAT [CACACA_site3613],6.97
13,AATTTTCCATAGATTGTGCACAAATTTTTATTTTGT,8.58
14,AAGAAAAAGACTTCATGAAAAAGAATTTTTTTAATT [TGCATGCA_negctrl_site473],6.44
15,ATATATTTTTTTTTTATTTTATTATTATAATTTATC [XGTACX_negctrl_site16],7.02
16,TAATATTATTTTTCAGTGCAATATAACCTTAGAATT [GTGCAC_site9417],7.34
17,ATTTTATTTTTTTGAAGTACGAATTCCGAGAAGAAA [XGTACX_site43],7.48
18,AAACAAAACAACTAAGTGCATAAAAATAAAATAAAT,8.04
19,TATAGTTCTTCTATTTGTACATATATTATTATTTAA [XGTACX_site895],6.9
20,TATTCAAAAATATAAACAATGAAACAGTATAATATG [CACACA_negctrl_site1482],7.09
21,TTTTAAGGTGTGAAGGTGCAAAAAGGTAAATAGGAA,10.8
22,TAAACAGAAGCACATACACACACTCAAAAAAAAAAA [CACACA_site3051],7.15
23,AAAATACATAAACACACACACACACCGATATATATA [CACACA_site9186],7.52

row,Sequence,gcPBM binding intensity (ln)
1,CACAAACACCCAAACACACACACACCGACATACATA [CACACA_site4410],7.21
2,AAAAAAAAAAAAGGCACACAAACATATGTAGACATA [CACACA_site2284],7.03
3,TCGTGTGTAATATTATATATATATATATAATATATA [TGCATGCA_negctrl_site289],7.78
4,TCTTTTATATTGTAGAGTACATATTTTCAATATATA [XGTACX_site5586],6.95
5,TTCTTTTATAAAAGTAGTACAATTATATTGTAATTA [XGTACX_site2855],7.14
6,AAATTGTCAAAACACGCACACACATATACATAATAA [CACACA_site1743],7.49
7,GTGATACGCTATAGGACACACGCTTAATAATTATAA [CACACA_site1694],6.95
8,ATCATAAATTATTATACACACAATACGTGACCTATT [CACACA_site1906],7.06
9,TCTATGTAGTTTTTATGTACTAAATAAATAAATAAA [XGTACX_site2599],7.29
10,TAGAAGCAGAAACACACACACATACATACACATACA [CACACA_site1467],7.09
11,TTTTCAATATATATTTGTACTTTATTTTATGATATT [GTGCAC_negctrl_site732],7.13
12,GCATTCATTTTTAATACACACAAAAAAAAAATAAAA [CACACA_site2408],7.3
13,ACTATTAACAGTGTAGTGCAAAAAGGTTAATTATTA,8.89
14,TAAATGTCCTTATTTGCACACACACCGATAAGAAAT [CACACA_site5723],7.47
15,TACATATATATTTGTTCACACACACCCAAAAAAAAA [CACACA_site8788],7.01
16,TACGCACAAAAATATACACACACACCGATATATTTA [CACACA_site9213],7.15
17,AGACATTTTTAAGCAAAACATTCATCATCTTATAAT [CACACA_negctrl_site1539],6.74
18,TATTTTACACATTTACGTACATAAATATATATATAT [XGTACX_site8788],8.5
19,CTAACAACCAAACGCACACACACAAAAAAAAAAATA [CACACA_site400],7.51
20,TTTGAAATGATATATAAACACACATATATATATATA [CACACA_site9170],9.67
21,ATATTGAATTCCAACACATGCAAAACTTTCGGTTTT [TGCATGCA_site485],6.82
22,TATTAAAAGGTGAGTACACACATATATGCGTATATA [CACACA_site2102],6.96
23,AACAACTATTAATTTACACACATGTATATATCTTAC [CACACA_site7459],7.07

row,Sequence,gcPBM binding intensity (ln)
1,TATGTAAAAACAGGCACACATATATCATATATATAT [CACACA_site619],8.87
2,TATGTATGCCTGTTTTGTACTTAAGAAAATGTTGCT [XGTACX_site8443],6.95
3,AAAAAAAAAAAAAAAAGTACATAATATAAAATCTAA [XGTACX_site6019],7.54
4,TATAAATATATATGTACACACATATACATGTTGAAT [CACACA_site3118],7.09
5,TATAAACATAAATATACACACAAACATCTATGTATT [CACACA_site4804],6.81
6,AAAAAAAAATATCACACACACATAAATATAAACCAA [CACACA_site2279],6.95
7,AAAAAAAAAAAAACTACACACATAAAATATATTGTG [CACACA_site805],7.05
8,TAAAACATCAAGGGGTGTACAAAAAAGATGAACAGG [XGTACX_site6929],7.28
9,AGAGCATAATAAAACACACACATACATACATATATA [CACACA_site935],6.91
10,ATTGGGTTCATCAGCACACACAACATCATGTAATAA [CACACA_site5093],6.98
11,AGGCACTTATAATAATGTACATAAATAAAAAGAAAA [XGTACX_site6037],7.02
12,TTCTGCAGCAATGTTTTTTTTAAATATTTATATGGT [CACACA_negctrl_site1815],7.16
13,AAAAAAATAACAAAGTGTACTTTTATATTTTACATA [XGTACX_site8954],6.78
14,GCTAGTTTTTTTTGGCGTACAGTACCGGTTTACTTT [XGTACX_site2606],7.69
15,TTCCTCTTAATATGTGCACACTAAATTATAACATAA [CACACA_site3260],10
16,CATACCATACATAAAACACACAAAATTTACATAATA [CACACA_site3100],7.02
17,TATAGTTTTATTATTTATGTGTTAAAATTATACAAG [TGCATGCA_negctrl_site246],7.15
18,AAAAAAAAAAAAAAATGTACATATTAAGTATAATTA [XGTACX_site4616],7.23
19,TTAGCTCAATTTTTGGGTACACACAAATGTATAATA [XGTACX_site5003],6.97
20,GAAAAATGTAAATACATATATGTACACAAATATATA [GTGCAC_negctrl_site557],7.12
